Experimental data: PubChem BioAssay AID1240 (Sanford-Burnham Center for Chemical Genomics, 2008)
In all, about 50,000 compounds went through this assay and about 800 (1.6%) showed an effect of 50% or more. The list shows a part of the results.

Biological target: Bcl-2-like protein 10 (Homo sapiens) (UniProt Q9HD36)
Assay: TR3 peptide-Bcl-B binding displacers, biochemical primary FP assay, phenotype converters (AID 1240);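 note: 0% = Bcl-B with tracer peptide and DMSO and 100% = tracer peptide lacking Bcl-B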
Details: GST-Bcl-B / FITC-TR3 peptide fluorescence polarization; stronger effect = higher value; compound at 3.75 mg/L

Sequence of UniProt Q9HD36 (Q9HD36 whole entry, looked up): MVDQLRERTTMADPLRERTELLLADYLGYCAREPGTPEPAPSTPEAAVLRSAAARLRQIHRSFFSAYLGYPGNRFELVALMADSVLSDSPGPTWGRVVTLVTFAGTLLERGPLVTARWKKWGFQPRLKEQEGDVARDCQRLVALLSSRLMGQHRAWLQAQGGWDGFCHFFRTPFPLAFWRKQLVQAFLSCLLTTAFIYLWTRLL

| SMILES | displacement |
| --- | --- |
| COc1ccc(N(CC(=O)NCCc2ccccc2)S(C)(=O)=O)c(OC)c1 | 3.4% |
| O=C1CC(c2ccccc2)CC2=C1C(c1c(F)cccc1Cl)Nc1ccccc1N2 (stereo not drawn) | 7.1% |
| O=C(NCc1ccncc1)c1cccc([N+](=O)[O-])c1 | -10.7% |
| Cc1ccccc1C(=O)O/N=C(\N)c1cccc([N+](=O)[O-])c1 | -7.1% |
| Cc1ccc(S(=O)(=O)N2CCCCC2)c(C)c1N1CCc2cn[nH]c21 | -4.9% |
| Cc1ccc(C2C3=C(CC(C)(C)CC3=O)Nc3ccc4ccccc4c32)cc1[N+](=O)[O-] (stereo not drawn) | -0.8% |
| Cc1cc(C)c(/C(O)=C2/C(=O)C(=O)N(c3ccccn3)C2c2cccnc2)c(C)c1 (stereo not drawn) | -19.3% |
| C/C(=N\NC(=O)c1cccc([N+](=O)[O-])c1)c1ccncc1 | 1.5% |
| Cn1/c(=N/N=C/c2cc([N+](=O)[O-])ccc2O)sc2ccccc21 | 13.5% |
| COc1ccccc1NC(=O)CSc1nsc(SCC(=O)Nc2ccccc2OC)n1 | 11.6% |
| O=C(Nc1ccc(Cl)cc1)c1ccc(CN2CCN(c3ccccc3)CC2)cc1 | -7% |
| O=C1/C(=C/c2ccccc2Cl)NC(=S)N1c1ccccc1 | 4.5% |
| Cc1ccc(C(=O)NNC(=O)c2ccc3ccccc3c2O)cc1 | 20.5% |
| CCOC(=O)Cc1csc(NS(=O)(=O)c2ccc3ccccc3c2)n1 | -0.6% |
| O=C(N/C(=C/c1ccc(Cl)cc1)C(=O)N1CCCCC1)c1ccco1 | -3.8% |
| O=C(Nc1cccc(Oc2ccc3c(c2)C(=O)N(c2ccccc2)C3=O)c1)c1ccc([N+](=O)[O-])cc1 | 21.1% |
| COc1ccc(C2CC(C(F)(F)F)n3nc(C(=O)Nc4c(F)cc(F)cc4Br)c(Cl)c3N2)cc1OC (stereo not drawn) | 13.4% |
| COC(=O)c1ccc(/C=N/NC(=O)COc2c(Br)cc(Br)cc2Br)cc1 | 6.1% |
| O=C(Nc1ccc2oc(-c3cccnc3)nc2c1)c1ccc([N+](=O)[O-])cc1Cl | -6% |
| O=C(O)CCC(=O)N1N=C(c2ccc([N+](=O)[O-])cc2)CC1c1ccc(Br)cc1 (stereo not drawn) | 15.6% |
| COc1cccc(OCCOc2c(Cl)cc(/C=c3\sc4nc5ccccc5n4c3=O)cc2OC)c1 | 92.6% |
| COc1ccc(C2=NN(CN3C(=O)C(=O)c4cc(Br)ccc43)C(c3cccc([N+](=O)[O-])c3)C2)cc1 (stereo not drawn) | -1.5% |
| CCOC(=O)COc1ccc2oc(=O)cc(C)c2c1 | 1.3% |

| SMILES | displacement |
| --- | --- |
| CC(=O)OC(OC(C)=O)c1ccc([N+](=O)[O-])cc1 | -6.4% |
| COc1cccc(/C=C/C(=O)c2ccc(Cl)cc2)c1OC | 0.9% |
| Cc1ccc(OCC(=O)NCC(C)C)cc1 | 13.5% |
| C=C(C)COc1ccc2oc(C)c(C(=O)OCCOC)c2c1 | 12.6% |
| O=C(N/N=C/c1cccs1)c1cccc2cc[nH]c12 | -1.6% |
| Cc1nc(SCC(=O)N2c3ccccc3Sc3ccccc32)n[nH]1 | -3.9% |
| O=C(/C=C/c1ccccc1)Nc1ccccc1CO | 9.4% |
| COC(=O)c1c(-c2ccc3ccccc3c2)csc1N | 3.7% |
| COc1cc(CN2CCN(Cc3ccco3)CC2)cc(OC)c1OC | 3.2% |
| COc1cc(NC(=O)c2nn3c(c2Br)NC(c2cccs2)CC3C(F)(F)F)cc([N+](=O)[O-])c1 (stereo not drawn) | 1.6% |
| CCc1cccc(C)c1NC(=O)c1ccc(C)c([N+](=O)[O-])c1 | 9.6% |
| COc1cc(C(=O)Nc2ccc(N3C(=O)c4ccc(Cl)cc4C3=O)c(C)c2)cc(OC)c1OC | -1.5% |
| CCCCCCCn1c(NCCO)nc2ccccc21 | -0.3% |
| CCc1ccc(C=NC23CN4CN(CN(C4)C2)C3)s1 | -15.3% |
| COc1ccc(O)c(C(=O)CC(=O)c2ccccc2Cl)c1 | -5.7% |
| Cn1c(=O)oc2cc(Cl)c(C(=O)O)cc21 | 9.5% |
| CCOc1cccc(C(=O)Nc2ccc(NC(=O)c3cccc(C)c3)cc2)c1 | 8.4% |
| CCOC(=O)c1ccccc1NC(=O)c1ccccc1 | 9.6% |
| O=C(Cc1ccccc1)Oc1cccc2c(OC(=O)Cc3ccccc3)cccc12 | -3.2% |
| Cc1ccc(-c2c(C#N)c(N)nc3c2CCCCCC3)o1 | 1.4% |
| CC1(C)CC(=O)C2=C(C1)OC(N)=C(C#N)C2c1ccc([N+](=O)[O-])cc1 (stereo not drawn) | 15.9% |
| CCOc1ccc(C(=O)Nc2cc(Cl)cc(Cl)c2)cc1[N+](=O)[O-] | 14.4% |
| O=C1CC(c2ccc(Cl)cc2)CC2=C1C(c1cccs1)Nc1ccccc1N2 (stereo not drawn) | -5.3% |

| SMILES | displacement |
| --- | --- |
| Cc1c(N(C(=O)c2ccc(F)cc2)C(C)C)c(=O)n(-c2ccccc2)n1C | -5% |
| O=C(Nc1cccc(Cl)c1Cl)c1ccccc1 | 6.8% |
| COc1ccccc1NC(=O)c1sc(-c2ccccc2)nc1C | 9.1% |
| O=C(Nc1cccc(Cl)c1)Nc1ccc2c(c1)OCCO2 | 4.6% |
| CC(=O)Nc1ccccc1NC(=O)c1cccc(Cl)c1 | -2.4% |
| COc1ccc(-n2nc3cc(C)c(NC(=O)COc4ccc([N+](=O)[O-])cc4)cc3n2)cc1 | -1.2% |
| O=[N+]([O-])c1ccc(-c2nnc(-c3ccc4c(c3)OCO4)o2)cc1 | 15.7% |
| O=C(Nc1ccc(Cl)c(Cl)c1)c1ccc(Br)o1 | -5.1% |
| Cc1ccc(C2CC(C(F)(F)F)n3nc(C(=O)N4CCN(Cc5ccccc5)CC4)cc3N2)cc1 (stereo not drawn) | -1.1% |
| COc1ccc(NC(=O)C2COc3ccccc3O2)cc1OC (stereo not drawn) | -8% |
| COc1ccc(/C(N)=N/OC(=O)c2cccc(Br)c2)cc1 | 0.5% |
| C=CCOc1ccc(-c2nc3sc4c(c3c(=O)[nH]2)CCCC4)cc1Br | -20% |
| Cc1ccc(NC(=O)C(=O)NCC(C)C)cc1 | 11% |
| Cc1ccc(-c2cc(=O)c3cc(Cl)ccc3o2)cc1 | 14.4% |
| COc1cc(NC(=O)c2cc3nc(-c4cccs4)cc(C(F)(F)F)n3n2)cc([N+](=O)[O-])c1 | -0.7% |
| CCOC(=O)c1c(NC(=S)NC(=O)/C=C/c2ccco2)sc(C)c1C | 23.9% |
| Cc1ccc2oc(C(Cl)(Cl)Cl)cc(=O)c2c1 | 10% |
| O=C(N1CCN(c2ccc([N+](=O)[O-])cc2)CC1)S(=O)(=O)c1ccccc1 | 12.3% |
| CCC(Oc1ccccc1)C(=O)Nc1ncccn1 (stereo not drawn) | -0.1% |
| Cc1nc(NC(=O)c2ccccc2)sc1-c1csc(Nc2cccc(C(=O)O)c2)n1 | 7% |
| CCCOc1cccc(C(=O)Nc2cc3nn(-c4ccccc4)nc3cc2C)c1 | 2.2% |
| COc1ccc(/C=C/C(=O)NCC(C)NC(=O)/C=C/c2ccc(OC)c(OC)c2)cc1OC (stereo not drawn) | -6.7% |
